Reference: the supplement of paper PMC9135407
Values joined by “and” are separate entries in the source; they are usually repeats but may differ in a detail not shown here. Equal entries are not always repeated. Structures can show the parent of a compound that is named as a salt. Hit rate of the full screen: of about 5,800 compounds, about 620 (11%) showed activity.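 How the source made its calls: active = score above a cut-off or among the top three wells of a plate; in these data no inactive exceeds 0.85.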 This is a selection; strong and weak results do not stand in their true shares.

System: primary human hepatic stellate cells (donor 1)
Test: scaled lipid accumulation score (0 = DMSO-like, 1 = nortriptyline-like); higher = stronger HSC inactivation (lipid re-accumulation), active = hit call of the paper
Conditions: 48 h
[1] = library stock concentration: 10 mM
[2] = library stock concentration: 3.33 mM
[3] = library stock concentration: 1 mM
[4] = library stock concentration: 4.5 mM
[5] = library stock concentration: 80 uM
[6] = library stock concentration: 400 uM
[7] = library stock concentration: 2 mM

Structure (SMILES): CC(N)=O [Acetamide]
- scaled lipid accumulation score [1]: inactive: ≤ 0

Structure (SMILES): COc1ccc(-c2cc(=O)c3c(O)cc(O)cc3o2)cc1O [Diosmetin]
- scaled lipid accumulation score [2]: inactive: 0.016
- scaled lipid accumulation score [1]: inactive: ≤ 0

Structure (SMILES): CCCCCCCCCCCCCCCCOCC(CO)OC(C)=O (configuration not stated) [1-Hexadecyl-2-O-acetyl-glycerol]
- scaled lipid accumulation score [3]: inactive: 0.035

Structure (SMILES): Nc1nc(Cl)nc2c1ncn2[C@@H]1O[C@H](CO)[C@@H](O)[C@@H]1F [Clofarabine]
- scaled lipid accumulation score [2]: inactive: ≤ 0
- scaled lipid accumulation score (library stock concentration: 6.6 mM): inactive: ≤ 0
- scaled lipid accumulation score [1]: inactive: ≤ 0 and inactive: 0.031

Structure (SMILES): O=C1CN2Cc3c(ccc(Cl)c3Cl)N=C2N1
- scaled lipid accumulation score [1]: inactive: ≤ 0

Structure (SMILES): O=C1CN2Cc3c(ccc(Cl)c3Cl)N=C2N1 [Anagrelide hydrochloride]
- scaled lipid accumulation score (library stock concentration: 6.8 mM): inactive: ≤ 0

Structure (SMILES): O=C1CN2Cc3c(ccc(Cl)c3Cl)N=C2N1 [Anagrelide HCl]
- scaled lipid accumulation score [2]: inactive: 0.074
- scaled lipid accumulation score [1]: inactive: 0.58

Structure (SMILES): O=C1CN2Cc3c(ccc(Cl)c3Cl)N=C2N1 [Anagrelide]
- scaled lipid accumulation score (library stock concentration: 7.8 mM): inactive: 0.141

Structure (SMILES): C#CCCCCCCCCCCCC(O)CC(O)CO (configuration not stated) [Avocadyne]
- scaled lipid accumulation score [1]: inactive: 0.005

Structure (SMILES): CCCCCC(O)C=CC1C(O)CC(=O)C1CCCCCCC(=O)O [15(R)-Prostaglandin E1]
- scaled lipid accumulation score [3]: inactive: ≤ 0

Structure (SMILES): CCCCCC(O)C=CC1C(O)CC(=O)C1CCCCCCC(=O)O (configuration not stated) [8-iso Prostaglandin E1]
- scaled lipid accumulation score [3]: inactive: ≤ 0

Structure (SMILES): CCCCC[C@H](O)/C=C/[C@@H]1[C@@H](C/C=C\CCCC(=O)O)[C@@H](O)C[C@@H]1O [9a,11b-Prostaglandin F2]
- scaled lipid accumulation score [3]: inactive: ≤ -0.021

Structure (SMILES): CCCCC[C@H](O)/C=C/[C@@H]1[C@@H](C/C=C\CCCC(=O)O)[C@@H](O)C[C@@H]1O [11.beta.-Prostaglandin F2.alpha.]
- scaled lipid accumulation score [3]: inactive: ≤ 0

Structure (SMILES): CC(C)NCC(O)COc1ccc(COCCOC(C)C)cc1 (configuration not stated)
- scaled lipid accumulation score [1]: inactive: ≤ 0

Structure (SMILES): CC(C)NCC(O)COc1ccc(COCCOC(C)C)cc1 (configuration not stated) [Bisoprolol hemifumarate salt]
- scaled lipid accumulation score [1]: inactive: 0.146

Structure (SMILES): CC(C)NCC(O)COc1ccc(COCCOC(C)C)cc1 (configuration not stated) [(?)-Bisoprolol hemifumarate]
- scaled lipid accumulation score [1]: inactive: ≤ 0

Structure (SMILES): CC(C)NCC(O)COc1ccc(COCCOC(C)C)cc1 (configuration not stated) [Bisoprolol fumarate]
- scaled lipid accumulation score: inactive: ≤ 0
- scaled lipid accumulation score [2]: inactive: 0.026
- scaled lipid accumulation score [4]: inactive: ≤ 0
- scaled lipid accumulation score [1]: inactive: ≤ 0

Structure (SMILES): Nc1nc(=S)c2ncn([C@@H]3O[C@H](CO)[C@@H](O)[C@H]3O)c2[nH]1 [Thioguanosine]
- scaled lipid accumulation score: inactive: 0.076

Structure (SMILES): CCCCC/C=C\CCCCCCCCCCCCC(=O)O [14(Z)-Eicosenoic Acid]
- scaled lipid accumulation score [3]: inactive: ≤ 0

Structure (SMILES): CC[C@@H]([C@H](C)O)n1ncn(-c2ccc(N3CCN(c4ccc(OC[C@@H]5CO[C@@](Cn6cncn6)(c6ccc(F)cc6F)C5)cc4)CC3)cc2)c1=O [Posaconazole]
- scaled lipid accumulation score [1]: active: 0.869

Structure (SMILES): CC(C)n1cnc2c(NCCc3ccc(O)cc3)nc(-c3csc4ccccc34)nc21 [StemRegenin 1 (SR1)]
- scaled lipid accumulation score [1]: active: 0.919

Structure (SMILES): Nc1nc(F)nc2c1ncn2[C@@H]1O[C@H](CO)[C@@H](O)[C@@H]1O
- scaled lipid accumulation score [1]: inactive: 0.743

Structure (SMILES): Nc1nc(F)nc2c1ncn2[C@@H]1O[C@H](CO)[C@@H](O)[C@@H]1O [Fludarabine]
- scaled lipid accumulation score [1]: inactive: 0.781

Structure (SMILES): N#CC(Cc1ccc(O)cc1)c1ccc(O)cc1 (configuration not stated) [2,3-bis (4-Hydroxyphenyl) Propionitrile]
- scaled lipid accumulation score [3]: inactive: 0.019

Structure (SMILES): CC(=O)c1cnc2ccc(-c3cc(Cl)c(O)c(Cl)c3)nc2c1N[C@H]1CC[C@H](CN(C)C)CC1
- scaled lipid accumulation score [5]: inactive: 0.258
- scaled lipid accumulation score [6]: inactive: 0.847
- scaled lipid accumulation score [7]: inactive: 0.765

Structure (SMILES): CC[C@H]1OC(=O)[C@H](C)[C@@H](O[C@H]2C[C@@](C)(OC)[C@@H](O)[C@H](C)O2)[C@H](C)[C@@H](O[C@@H]2O[C@H](C)C[C@H](N(C)C)[C@H]2O)[C@](C)(O)C[C@@H](C)/C(=N\OCOCCOC)[C@H](C)[C@@H](O)[C@]1(C)O [Roxithromycin]
- scaled lipid accumulation score: inactive: ≤ 0
- scaled lipid accumulation score [2]: inactive: ≤ 0
- scaled lipid accumulation score [1]: inactive: ≤ 0 and inactive: ≤ -0.027

Structure (SMILES): O=C([O-])[C@H]1/C(=C/CO)O[C@@H]2CC(=O)N21.[Li+] [Clavulanate lithium]
- scaled lipid accumulation score (library stock concentration: 9.7 mM): inactive: ≤ 0

Structure (SMILES): OC(c1ccccc1)C1CCN(CCc2ccccc2)CC1 (configuration not stated)
- scaled lipid accumulation score [1]: inactive: 0.129

Structure (SMILES): Nc1nc(=O)c2nc(CNc3ccc(C(=O)N[C@@H](CCC(=O)O)C(=O)O)cc3)cnc2[nH]1 [Folic acid]
- scaled lipid accumulation score: inactive: 0.055
- scaled lipid accumulation score [4]: inactive: ≤ 0
- scaled lipid accumulation score [1]: inactive: ≤ 0

Structure (SMILES): CC(=O)N[C@@H](CC(C)C)C(=O)O [Acetyl-l-leucine]
- scaled lipid accumulation score [1]: inactive: ≤ 0

Structure (SMILES): CC(=O)N[C@@H](CC(C)C)C(=O)O [N-Acetyl-L-leucine]
- scaled lipid accumulation score: inactive: ≤ 0

Structure (SMILES): CNC(=O)[C@@H](Cc1ccccc1)N(C)C(=O)[C@@H](Cc1ccc2ccccc2c1)N(C)C(=O)/C=C/CC(C)(C)N.CNC(=O)[C@@H](Cc1ccccc1)N(C)C(=O)[C@@H](Cc1ccc2ccccc2c1)N(C)C(=O)/C=C/CC(C)(C)N.O=C(O)/C=C/C(=O)O [Tabimorelin]
- scaled lipid accumulation score [1]: active: 1.3

Structure (SMILES): O=C(NCCS(=O)(=O)c1ccc(C(F)(F)F)cn1)c1ccc(Cl)cc1
- scaled lipid accumulation score [2]: inactive: ≤ -0.009
- scaled lipid accumulation score [1]: inactive: ≤ 0

Structure (SMILES): CC(C)CC(=O)Nc1n[nH]c2c1CN(C(=O)C1CCN(C)CC1)C2(C)C
- scaled lipid accumulation score [5]: inactive: ≤ 0
- scaled lipid accumulation score [6]: inactive: 0.21
- scaled lipid accumulation score [7]: inactive: 0.029
- scaled lipid accumulation score [2]: inactive: 0.199
- scaled lipid accumulation score [1]: inactive: ≤ 0 and inactive: 0.015
